Assay results from the supplement of paper PMC8728848.
The list shows a part of the results.

Assays:
Assay in all cases: glycan array binding signal (z-score within array); higher = stronger binding
Conditions in all cases: glycan notation: IUPAC condensed, linker removed
[1] = target: Gal(b1-3)GlcNAc(b1-3)Gal(b1-4)GlcNAc(b1-2)[Gal(b1-3)GlcNAc(b1-3)Gal(b1-4)GlcNAc(b1-6)]Man(a1-6)[Gal(b1-3)GlcNAc(b1-3)Gal(b1-4)GlcNAc(b1-2)Man(a1-3)]Man(b1-4)GlcNAc(b1-4)[Fuc(a1-6)]GlcNAc
Summary of the method: (§1)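 Glycan array data were curated from 3228 arrays in the Consortium for Functional Glycomics database and kept only where the protein sequence was available. Glycan names were converted to IUPAC-condensed notation, and columns mapping to the same glycan were averaged. The binding signal is a within-array Z-score, averaged across arrays of the same protein sequence at different concentrations or buffers and across linkers. Negative Z-scores can be read as non-binding.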

[2] = target: Gal(b1-3)GlcNAc(b1-3)Gal(b1-4)GlcNAc(b1-3)Gal(b1-4)GlcNAc(b1-2)[Gal(b1-3)GlcNAc(b1-3)Gal(b1-4)GlcNAc(b1-3)Gal(b1-4)GlcNAc(b1-6)]Man(a1-6)[Gal(b1-3)GlcNAc(b1-3)Gal(b1-4)GlcNAc(b1-3)Gal(b1-4)GlcNAc(b1-2)Man(a1-3)]Man(b1-4)GlcNAc(b1-4)[Fuc(a1-6)]GlcNAc
Summary of the method: as §1

[3] = target: Gal(b1-3)GlcNAc(b1-3)Gal(b1-4)GlcNAc(b1-6)[Gal(b1-3)GlcNAc(b1-3)]Gal(b1-4)Glc
Summary of the method: as §1

[4] = target: Gal(b1-3)GlcNAc(b1-3)Gal(b1-4)[Fuc(a1-3)]GlcNAc
Summary of the method: as §1

[5] = target: Gal(b1-3)GlcNAc(b1-3)Gal(b1-4)[Fuc(a1-3)]GlcNAc(b1-6)[Gal(b1-3)GlcNAc(b1-3)]Gal(b1-4)Glc
Summary of the method: as §1

[6] = target: Gal(b1-3)GlcNAc(b1-3)GalNAc
Summary of the method: as §1

[7] = target: Gal(b1-3)GlcNAc(b1-6)Gal(b1-4)GlcNAc
Summary of the method: as §1

[8] = target: Gal(b1-3)GlcNAc(b1-6)GalNAc
Summary of the method: as §1

[9] = target: Gal(b1-3)GlcNAc(b1-6)[Gal(b1-3)]GalNAc
Summary of the method: as §1

Gal(b1-3)GlcNAc6S = target: Gal(b1-3)GlcNAc6S
Summary of the method: as §1

[10] = target: Gal(b1-3)[Fuc(a1-4)]GlcNAc
Summary of the method: as §1

[11] = target: Gal(b1-3)[Fuc(a1-4)]GlcNAc(b1-2)Man
Summary of the method: as §1

[12] = target: Gal(b1-3)[Fuc(a1-4)]GlcNAc(b1-2)Man(a1-3)[Gal(b1-3)[Fuc(a1-4)]GlcNAc(b1-2)Man(a1-6)]Man(b1-4)GlcNAc(b1-4)[Fuc(a1-6)]GlcNAc
Summary of the method: as §1

[13] = target: Gal(b1-3)[Fuc(a1-4)]GlcNAc(b1-3)Gal(b1-3)[Fuc(a1-4)]GlcNAc
Summary of the method: as §1

[14] = target: Gal(b1-3)[Fuc(a1-4)]GlcNAc(b1-3)Gal(b1-4)[Fuc(a1-3)]GlcNAc
Summary of the method: as §1

[15] = target: Gal(b1-3)[Fuc(a1-4)]GlcNAc(b1-6)GalNAc
Summary of the method: as §1

[16] = target: Gal(b1-3)[GlcNAc(b1-6)]GalNAc
Summary of the method: as §1

[17] = target: Gal(b1-3)[Neu5Ac(a2-6)]GalNAc
Summary of the method: as §1

[18] = target: Gal(b1-3)[Neu5Ac(a2-6)]GlcNAc(b1-4)Gal(b1-4)Glc
Summary of the method: as §1

[19] = target: Gal(b1-3)[Neu5Ac(b2-6)]GalNAc
Summary of the method: as §1

Gal(b1-4)Gal = target: Gal(b1-4)Gal
Summary of the method: as §1

[20] = target: Gal(b1-4)GalNAc(a1-3)[Fuc(a1-2)]Gal(b1-4)GlcNAc
Summary of the method: as §1

[21] = target: Gal(b1-4)GalNAc(b1-3)[Fuc(a1-2)]Gal(b1-4)GlcNAc
Summary of the method: as §1

Gal(b1-4)Glc = target: Gal(b1-4)Glc
Summary of the method: as §1

Gal(b1-4)Glc6S = target: Gal(b1-4)Glc6S
Summary of the method: as §1

Gal(b1-4)GlcNAc = target: Gal(b1-4)GlcNAc
Summary of the method: as §1

[22] = target: Gal(b1-4)GlcNAc(a1-6)Gal(b1-4)GlcNAc
Summary of the method: as §1

Gal(b1-4)GlcNAc(b1-2)Man = target: Gal(b1-4)GlcNAc(b1-2)Man
Summary of the method: as §1

[23] = target: Gal(b1-4)GlcNAc(b1-2)Man(a1-3)Man(b1-4)GlcNAc(b1-4)GlcNAc
Summary of the method: as §1

[24] = target: Gal(b1-4)GlcNAc(b1-2)Man(a1-3)[Gal(b1-4)GlcNAc(b1-2)Man(a1-6)]Man(b1-4)GlcNAc(b1-4)GlcNAc
Summary of the method: as §1

[25] = target: Gal(b1-4)GlcNAc(b1-2)Man(a1-3)[Gal(b1-4)GlcNAc(b1-2)Man(a1-6)]Man(b1-4)GlcNAc(b1-4)[Fuc(a1-6)]GlcNAc
Summary of the method: as §1

[26] = target: Gal(b1-4)GlcNAc(b1-2)Man(a1-3)[Gal(b1-4)GlcNAc(b1-2)Man(a1-6)][Gal(b1-4)GlcNAc(b1-4)]Man(b1-4)GlcNAc(b1-4)[Fuc(a1-6)]GlcNAc
Summary of the method: as §1

[27] = target: Gal(b1-4)GlcNAc(b1-2)Man(a1-3)[Gal(b1-4)GlcNAc(b1-2)Man(a1-6)][GlcNAc(b1-4)]Man(b1-4)GlcNAc(b1-4)[Fuc(a1-6)]GlcNAc
Summary of the method: as §1

[28] = target: Gal(b1-4)GlcNAc(b1-2)Man(a1-3)[GlcNAc(b1-2)Man(a1-6)]Man(b1-4)GlcNAc(b1-4)GlcNAc
Summary of the method: as §1

[29] = target: Gal(b1-4)GlcNAc(b1-2)Man(a1-3)[GlcNAc(b1-4)][Gal(b1-4)GlcNAc(b1-2)Man(a1-6)]Man(b1-4)GlcNAc(b1-4)GlcNAc
Summary of the method: as §1

[30] = target: Gal(b1-4)GlcNAc(b1-2)Man(a1-3)[Man(a1-6)]Man(b1-4)GlcNAc(b1-4)GlcNAc
Summary of the method: as §1

[31] = target: Gal(b1-4)GlcNAc(b1-2)Man(a1-6)Man(b1-4)GlcNAc(b1-4)GlcNAc
Summary of the method: as §1

[32] = target: Gal(b1-4)GlcNAc(b1-2)Man(a1-6)[GlcNAc(b1-2)Man(a1-3)]Man(b1-4)GlcNAc(b1-4)GlcNAc
Summary of the method: as §1

B1: Clec18C (Homo sapiens) (protein)
chain: MLHPETSPGRGHLLAVLLALLGTAWAEVWPPQLQEQAPMAGALNRKESFLLLSLHNRLRSWVQPPAADMRRLDWSDSLAQLAQARAALCGTPTPSLASGLWRTLQVGWNMQLLPAGLVSFVEVVSLWFAEGQRYSHAAGECARNATCTHYTQLVWATSSQLGCGRHLCSAGQAAIEAFVCAYSPRGNWEVNGKTIVPYKKGAWCSLCTASVSGCFKAWDHAGGLCEVPRNPCRMSCQNHGRLNISTCHCHCPPGYTGRYCQVRCSLQCVHGRLREEECSCVCDIGYGGAQCATKVHFPFHTCDLRIDGDCFMVSSEADTYYRARMKCQRKGGVLAQIKSQKVQDILAFYLGRLETTNEVIDSDFETRNFWIGLTYKTAKDSFRWATGEHQAFTSFAFGQPDNHGFGNCVELQASAAFNWNNQRCKTRNRYICQFAQEHISRWGPGS
Q: For B1, which “glycan array binding signal (z-score)” value [1] is on record?
A: -0.346

Q: And the “glycan array binding signal (z-score)” value [2]?
A: 2.71

Q: What about the “glycan array binding signal (z-score)” value [3] of the same binder?
A: 0.044

Q: And the “glycan array binding signal (z-score)” value [4]?
A: -0.23

Q: And the “glycan array binding signal (z-score)” value [5]?
A: -0.432

Q: What about the “glycan array binding signal (z-score)” value [6] of the same binder?
A: -0.404

Q: What about the “glycan array binding signal (z-score)” value [7] of the same binder?
A: -0.291

Q: And the “glycan array binding signal (z-score)” value [8]?
A: 1.6

Q: What about the “glycan array binding signal (z-score)” value [9] of the same binder?
A: 0.043

Q: And the “glycan array binding signal (z-score)” value (Gal(b1-3)GlcNAc6S)?
A: 1.78

Q: What about the “glycan array binding signal (z-score)” value [10] of the same binder?
A: 0.006

Q: And the “glycan array binding signal (z-score)” value [11]?
A: 0.037

Q: What about the “glycan array binding signal (z-score)” value [12] of the same binder?
A: -0.396

Q: What about the “glycan array binding signal (z-score)” value [13] of the same binder?
A: -0.594

Q: What about the “glycan array binding signal (z-score)” value [14] of the same binder?
A: -0.528

Q: What about the “glycan array binding signal (z-score)” value [15] of the same binder?
A: -0.263

Q: What about the “glycan array binding signal (z-score)” value [16] of the same binder?
A: 4.42

Q: And the “glycan array binding signal (z-score)” value [17]?
A: -0.24

Q: What about the “glycan array binding signal (z-score)” value [18] of the same binder?
A: 1.42

Q: What about the “glycan array binding signal (z-score)” value [19] of the same binder?
A: -0.502

Q: And the “glycan array binding signal (z-score)” value (Gal(b1-4)Gal)?
A: 1.61

Q: What about the “glycan array binding signal (z-score)” value [20] of the same binder?
A: 1.12

Q: And the “glycan array binding signal (z-score)” value [21]?
A: 1.57

Q: What about the “glycan array binding signal (z-score)” value (Gal(b1-4)Glc) of the same binder?
A: 0.045

Q: What about the “glycan array binding signal (z-score)” value (Gal(b1-4)Glc6S) of the same binder?
A: 0.371

Q: And the “glycan array binding signal (z-score)” value (Gal(b1-4)GlcNAc)?
A: 0.293

Q: And the “glycan array binding signal (z-score)” value [22]?
A: -0.238

Q: What about the “glycan array binding signal (z-score)” value (Gal(b1-4)GlcNAc(b1-2)Man) of the same binder?
A: -0.391

Q: And the “glycan array binding signal (z-score)” value [23]?
A: 1.28

Q: What about the “glycan array binding signal (z-score)” value [24] of the same binder?
A: 5.03

Q: What about the “glycan array binding signal (z-score)” value [25] of the same binder?
A: 0.406

Q: What about the “glycan array binding signal (z-score)” value [26] of the same binder?
A: -0.546

Q: And the “glycan array binding signal (z-score)” value [27]?
A: 1.07

Q: What about the “glycan array binding signal (z-score)” value [28] of the same binder?
A: 1.5

Q: And the “glycan array binding signal (z-score)” value [29]?
A: 1.96

Q: What about the “glycan array binding signal (z-score)” value [30] of the same binder?
A: 0.188

Q: And the “glycan array binding signal (z-score)” value [31]?
A: -0.478

Q: What about the “glycan array binding signal (z-score)” value [32] of the same binder?
A: -0.411
